For orientation: inhibition means the change of the read-out against control, counted positive when it falls.

In all, about 340,000 compounds went through this assay and about 6,900 (2%) were called active. No stated cut-off is given here; in the data, active means inhibition above about 30%; inactive means below that, where a call was filed. The entries are a selection whose mix differs from that of the whole data set. Entries without a call were filed so in the source.

Chain of UniProt P14416 (P14416 whole entry, looked up): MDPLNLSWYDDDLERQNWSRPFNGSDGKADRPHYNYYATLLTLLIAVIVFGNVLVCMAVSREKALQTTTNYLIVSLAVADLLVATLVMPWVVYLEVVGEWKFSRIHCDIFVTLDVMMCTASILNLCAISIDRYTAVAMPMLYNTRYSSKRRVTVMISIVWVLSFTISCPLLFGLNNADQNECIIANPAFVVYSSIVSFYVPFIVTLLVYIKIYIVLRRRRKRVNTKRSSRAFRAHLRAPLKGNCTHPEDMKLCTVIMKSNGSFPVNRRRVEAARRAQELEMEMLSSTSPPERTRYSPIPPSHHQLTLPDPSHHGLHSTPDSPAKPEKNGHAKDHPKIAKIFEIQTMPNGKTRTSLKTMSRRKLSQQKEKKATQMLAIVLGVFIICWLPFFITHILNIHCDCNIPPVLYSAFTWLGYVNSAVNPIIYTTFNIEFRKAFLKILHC

The assay concerns the target D(2) dopamine receptor (Homo sapiens) (UniProt P14416). Nature of the assay: HTS Assay for Allosteric Antagonists of the Human D2 Dopamine Receptor: Primary Screen for Antagonists. Further: 0% is about no effect. To be noted: HEK293 TREx D2 cells, calcium flux, dopamine EC80; at 10 µM; stronger effect = higher value. The procedure, abridged:
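Read-out: kinetic calcium fluorescence (1 cycle/s) in inducible HEK293 T-REx D2 cells after an EC80 dopamine addition that followed 180 s compound preincubation. Loss of the dopamine response indicates antagonism.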
(In general: Calcium assays in cells follow changes in intracellular calcium, usually with a dye or a luminescent sensor.)
`Cc1cccn2c(=O)cc(COc3ccc(NC(=O)c4cccc(F)c4)cc3)nc12`: the inhibition was -8.36%.

As for `O=C(NCc1ccc(Cl)cc1)c1ccc2c(c1)NC(=O)C(CS(=O)(=O)Cc1ccccc1Cl)N2` (centres undefined), the inhibition was -7.88%.

With `O=C(NCc1ccccc1Cl)c1ccc(CSCc2cccc(F)c2)o1`, the inhibition was -9.41%. To `Cc1ccc(NC(c2nnc(-c3ccccc3)o2)c2ccccc2F)c([N+](=O)[O-])c1` (centres undefined) belongs 16.8%; to `Cc1ccc(-n2nnnc2CNC(=O)c2ccccc2F)cc1C`, 11.7%; to `COc1ccc(-c2cc(C(F)(F)F)n3nc(C(=O)Nc4cccc(C(F)(F)F)c4)c(Br)c3n2)cc1`, -0.331%. `COC(=O)c1cnc(N2CCN(c3ccccc3OC)CC2)c2ccccc12`: the inhibition is 3.47%. Next, `CCOC(=O)c1ccc(NC(=O)CCn2cnnn2)cc1`: -7.95%; `CCOC(=O)c1sc2ccccc2c1S(=O)(=O)NCc1ccc(F)cc1`: -6.62%. Next, `COc1cc(/C=C2\SC(=Nc3ccc(Cl)c(C(=O)O)c3)NC2=O)c(Br)c(Br)c1O`: active: 37%; `CC1=C(c2ccc(Cl)cc2)S(=O)(=O)N=C1N1CCN(c2cccc(C(F)(F)F)c2)CC1`: 10.5%; `COc1cc(SC)ccc1C(=O)Nc1nc2ccccc2[nH]1`: active: 33.9%. In the case of `COc1ccccc1CNC(=O)CCC1N=C2c3ccccc3N=C(SCc3ccccc3Cl)N2C1=O` (centres undefined), the inhibition was -4.12%. Turning to `CCSc1nc(-c2ccc(Cl)cc2)nc2c1Cc1c(CO)cnc(C)c1O2`, the inhibition came to 6.66%. Next, `c1cnc(N2CCN(Cc3c[nH]c4ccccc34)CC2)nc1`: active: 83.4%; `Cc1ccc(CNC(=O)C2CCCN(c3nnc(-n4c(C)ccc4C)s3)C2)cc1` (centres undefined): 2.88%; `COc1ccc(NC(=O)CSc2nc(O)c(C/C=C/c3ccccc3)c(=O)[nH]2)cc1`: -13.3%. To `COc1ccc(CCNC(=O)CCCCCn2c(=O)[nH]c3cc(OC)c(OC)cc3c2=O)cc1OC` belongs -18.1%.

`CC(=O)Nc1nnc(SCc2cc(=O)c3cccc(C)c3[nH]2)s1`: the inhibition amounted to 3.27%. To `CCN(Cc1ccc2c(c1)OCCO2)C(=O)CN1C(=O)NC2(CCCCC2)C1=O` belongs active: 40.7%; to `CC1=C(C(=O)Nc2ccc(C)cc2C)C(c2cccn2C)n2ncnc2N1` (centres undefined), -9.81%. Consider `CCC(C)N1CC23C=CC(O2)C(C(=O)OC)C3C1=O` (centres undefined), for which the inhibition was active: 30.5%. `CC(C)C(=O)Nc1cccc(NC2=NS(=O)(=O)c3ccccc32)c1`: the inhibition was -12.1%. Consider `Cc1ccc(C)c(N2CCN(c3nc4ccccc4c4nc(-c5cccnc5)nn34)CC2)c1`, for which the inhibition turned out to be 12%.

Regarding `CCOC(=O)c1cccc(NC(c2nnc(-c3ccccc3)o2)c2ccccc2F)c1` (centres undefined), the inhibition was found to be 11.4%. `NC(=O)c1noc(C(=O)N(CC(=O)NC2CCCC2)Cc2ccc3c(c2)OCO3)c1N`: the inhibition is active: 36.7%. Regarding `CCc1ccc(C2=CC(c3cccc(Br)c3)n3nnnc3N2)cc1` (centres undefined), the inhibition is -7.03%. To `Cc1c(NC2=C(Cl)C(=O)N(c3ccccc3)C2=O)c(=O)n(-c2ccccc2)n1C` belongs active: 37.8%; to `C=Cc1ccc(Cn2c(=O)n(-c3ccc(C)cc3)c(=O)c3c2c2cc(OC)ccc2n3C)cc1`, -7.81%; to `C=CCNC(=O)c1onc(CSc2ccccc2)c1C(=O)O`, active: 31.8%. `O=C(NCc1ccccc1)C1CCN(C(=O)c2cnn(-c3ccccc3)c2-n2cccc2)CC1`: the inhibition is -14.3%.

Turning to `COc1ccc2cc(C(=O)NCc3ccc4c(c3)CCN4C(=O)c3ccc(C)cc3)[nH]c2c1`, the inhibition worked out at 14%. Regarding `CCc1ccc(-n2nc(C)c3c(C)cc(=O)n(CC(=O)NCc4ccc(C)cc4)c32)cc1`, the inhibition is -3.55%. Consider `CCOc1ccc(NC(=O)Cn2c(=O)n(CC3CCCO3)c(=O)c3ccccc32)cc1` (centres undefined), for which the inhibition is -5.54%.

Consider `CCc1cc2c(cc3c(=O)n(CC(=O)N4CCN(c5cc(Cl)ccc5C)CC4)nc(CC)n32)s1`, for which the inhibition was -7.76%.

For the compound `O=C(NCc1cccnc1)C(=O)NCC(c1cccnc1)N1CCN(c2ccccc2)CC1` (centres undefined), the inhibition was 5.78%. Regarding `CC(C)CCNc1nc2c(S(=O)(=O)c3ccc(Br)cc3)nnn2c2ccsc12`, the inhibition stood at 0.302%. Next, `CCCCCCc1cc2cc(-c3nnc(-c4ccc(C)cc4)o3)c(=O)oc2cc1O`: 14.9%; `COC(=O)c1cc2sccc2n1Cc1nc(-c2cccc(Br)c2)oc1C`: 6.49%. For `COc1ccccc1Nc1c2c(nc3ccc(NC(=O)c4cccc(OC)c4OC)cc13)CCCC2`, the inhibition came to 7.93%. `COc1ccc(CCNC(=O)c2cnc3sc(N4CCC(C)CC4)nn3c2=O)cc1OC`: the inhibition is 0.691%.

As to `CC(=O)Nc1ccc(S(=O)(=O)NCc2ccc(C(=O)NCc3ccc(Cl)cc3)cc2)cc1`, the inhibition is -11.3%. In the case of `O=C(Nc1ccc(C(F)(F)F)cc1)C1CCCN(S(=O)(=O)c2cccc3cccnc23)C1` (centres undefined), the inhibition is -3.32%. Consider `CCC1CCCCN1C(=O)CSc1n[nH]c(-c2ccccc2Cl)n1` (centres undefined), for which the inhibition came out at 6.3%.

Turning to `Cn1c(C(=O)NCCN2CCc3ccccc3C2)cc2c(=O)[nH]c3ccccc3c21`, the inhibition was active: 32.3%. For `COc1cccc(CNC(=O)c2ccc(-c3nc(CS(=O)(=O)c4ccccc4)c(C)o3)cc2)c1`, the inhibition stood at 4.2%.

For `COC(=O)c1ccc2c(=O)n(CCCCCC(=O)N3CCN(c4cc(Cl)ccc4C)CC3)c(=O)[nH]c2c1`, the inhibition is -13.4%.

On to `CN(C)CCNC(=O)CN1C(=O)CCn2nc(-c3cn(C)c4ccccc34)cc21`, for which the inhibition stood at 7.02%.

Turning to `Cc1cc(C)cc(-n2nnc(-c3nsc(NC(=O)c4ccccc4Cl)n3)c2C)c1`, the inhibition was -10.9%. Turning to `CCc1ccc(NC(=O)Cn2ncc3c(C)n(Cc4cccc(Cl)c4)c(C)c3c2=O)cc1`, the inhibition came out at 1.56%. To `O=C(COC(=O)CC1SC(N2CCCC2)=NC1=O)Nc1ccc(Br)cc1` (centres undefined) belongs active: 30.7%; to `COc1ccc(CCNC(=O)C2CCN(c3ncnc4c3nc3n4CCCCC3)CC2)c(OC)c1`, -7.98%; to `CCOc1ccc(S(=O)(=O)c2c[nH]c3ccccc3c2=O)cc1`, 0.898%. Next, `Cc1ccccc1C(=O)Nc1ccc2nc(Nc3cccc(C(F)(F)F)c3)cc(C)c2c1`: -12.2%. Turning to `CCCc1cc(=O)oc2cc(C)c3c(-c4cccc(OC)c4)coc3c12`, the inhibition is 2.26%.

For `CC(C)(C)C1CCc2c(sc(NC(=O)CCC(=O)O)c2C(=O)Nc2ccccc2C(F)(F)F)C1` (centres undefined), the inhibition was 7.34%. For `NS(=O)(=O)c1ccc(CCNC(=O)c2ccc3nc(Cc4ccccc4)oc3c2)cc1`, the inhibition stood at 9.05%. To `CC1CCCN(Cc2nc3c(c(=O)n(C)c(=O)n3C)n2Cc2ccc(Cl)cc2Cl)C1` (centres undefined) belongs -15.1%. As to `CCOC(=O)c1cccc(NC(=O)N2CC(CC)Sc3ccccc32)c1` (centres undefined), the inhibition worked out at 6.93%. For the compound `Cc1ccccc1OCC(=O)Nc1ccc(OCc2cc(=O)n3ccsc3n2)cc1`, the inhibition stood at 10.6%. On to `CCOC(=O)c1cccc(NC(=O)N2CCC(CN3CCc4ccccc4C3)CC2)c1`, for which the inhibition was -21.2%. For `O=C(Cc1ccc(F)cc1)NCc1nc2cccnc2n1Cc1ccc(F)cc1`, the inhibition came out at 4.33%. For `FC(F)(F)c1cccc(N2CCN(Cc3nnc(-c4ccc5c(c4)OCO5)o3)CC2)c1`, the inhibition is -3.43%.

In the case of `CCCn1cnc2c(N)c(C)c(C)cc21`, the inhibition was active: 32.4%. On to `COc1cc([N+](=O)[O-])ccc1NC(=O)N1CCN(c2cc(-c3noc(C)n3)ccc2C)CC1`, for which the inhibition was -12%.

For `COc1ccc(NC(=O)C(C)n2nnc3sc(-c4ccccc4)cc3c2=O)cc1Cl` (centres undefined), the inhibition is -5.19%.

On to `CCOc1ccc(CCNC(=O)c2cc(=O)[nH]c3ccc(S(=O)(=O)N4CCCCC4)cc23)cc1OCC`, for which the inhibition came to 2.95%. On to `COc1cccc(NC(=O)C(=O)NCCc2csc(-c3ccc(C(F)(F)F)cc3)n2)c1`, for which the inhibition was 15.1%. In the case of `CCOc1ccccc1CNC(=O)C1CCN(S(=O)(=O)c2c(C)noc2/C=C/c2ccc(C)cc2)CC1`, the inhibition was -3.39%. With `Cc1cccc(-c2nc(CSCC(=O)N3CCN(c4ccccc4)CC3)c(C)o2)c1`, the inhibition was -9.6%. With `COc1ccccc1Cc1nc2ccccc2nc1SCC(=O)N1CCc2ccccc21`, the inhibition was determined as 10.5%. Consider `COc1ccccc1N1CCN(c2ccc(-c3nc(-c4ccccc4C)no3)cc2[N+](=O)[O-])CC1`, for which the inhibition is -18.1%. `CCOC(=O)c1ccc(NC(=O)CSc2nccn2-c2ccc(OCC)cc2)cc1`: the inhibition was -9.65%.

For the compound `Cc1cccc(N2CCN(C(=O)Cn3cnc4sc(C)c(S(=O)(=O)N5CCN(c6ncccn6)CC5)c4c3=O)CC2C)c1` (centres undefined), the inhibition is -1.19%. In the case of `FC(F)(F)c1cccc(-c2nnn3c2nc(NC2CCCCC2)c2ccccc23)c1`, the inhibition amounted to 9.43%.

Consider `COc1ccccc1CCNC(=O)Cc1c(C)c2c(cc(C)c3c(C)c(C)oc32)oc1=O`, for which the inhibition was -0.779%. To `CCC(C)NC(=O)C1CCN(C(=O)c2ccc(-n3ccc4ccccc43)s2)CC1` (centres undefined) belongs 1.68%; to `Cc1nc(-c2ccccc2)sc1CCNC(=O)C(=O)Nc1ccc2c(c1)OCCO2`, 14.1%; to `COc1cc(OC)c(NC(=O)N2CCc3c(sc4c3CCCC4)C2c2ccccc2)cc1Cl` (centres undefined), -0.363%. In the case of `O=C(Nc1nnc(S(=O)(=O)N2CCCCCC2)s1)c1ccccc1Cl`, the inhibition is -0.0106%. Take `Cc1cccc(NC(=O)C(Cc2ccccc2)n2cccc2)c1C` (centres undefined): the inhibition is 9.64%. To `CCn1ccc2cc(S(=O)(=O)N3CCCN(C(=O)Nc4ccc(C)c(F)c4)CC3)ccc21` belongs -5.5%. To `Cc1cccc(N(C)c2nc3ccc(C)cc3n3cnnc23)c1` belongs 10.7%; to `CCCCOc1ccccc1C(=O)Nc1nonc1-c1ccccc1`, 23.1%; to `CCCc1ccc(OCC(=O)Nc2sc3c(c2C(=O)OC)CCCCC3)cc1`, -6.06%.

For `CC(C)CC(=O)NCC1(N(C)C)CCCCC1`, the inhibition is -8.73%. `COc1ccc(CNC(=O)C(C)N2Cc3ccccc3C2=O)cc1` (centres undefined): the inhibition was -18.5%. `CC12CCC(C(=O)N(CCCCN3CCN(c4ccccn4)CC3)C1=O)C2(C)C` (centres undefined): the inhibition was active: 84.4%. Consider `Cc1ccc2c(=O)c(C(=O)c3ccc(F)cc3)cn(CC(=O)NCc3ccccc3Cl)c2n1`, for which the inhibition was -0.597%. Turning to `Cc1ccc(-c2nn(CC(=O)NC3CCCCC3)c3c2cnc2ccccc23)cc1`, the inhibition worked out at 2.29%. For `Cc1ccc(Cl)cc1N1CCN(C(=O)c2cccn2-c2nnc(N3CCCC3)s2)CC1`, the inhibition is 10.6%. To `CCN(C(=O)c1cc(S(=O)(=O)N2CCc3ccccc32)cn1C)c1cccc(C)c1` belongs 0.29%; to `CC1=C(C(N)=O)C(c2ccc(F)cc2)n2nc(-c3ccc(N(C)C)cc3)nc2N1` (centres undefined), 17.4%; to `CNS(=O)(=O)c1cn(CC(=O)Nc2ccc(C)c(N(C)C)c2)cc1S(=O)(=O)NC`, -4.13%.

The values above are taken from PubChem BioAssay AID485344 (National Center for Advancing Translational Sciences (NCATS), 2010).
